Measured values as given in the supplement of paper PMC4166925.
± gives the standard deviation of the averaged measurements. Over roughly 33,000 sequences, “E-score (dimensionless, -0.5 to 0.5)” has its median near -0.046; the highest 2% begin near 0.36. The list shows a part of the results.

Test system: T1, SpTbr T-box DNA-binding domain (GST fusion)
T1 sequence: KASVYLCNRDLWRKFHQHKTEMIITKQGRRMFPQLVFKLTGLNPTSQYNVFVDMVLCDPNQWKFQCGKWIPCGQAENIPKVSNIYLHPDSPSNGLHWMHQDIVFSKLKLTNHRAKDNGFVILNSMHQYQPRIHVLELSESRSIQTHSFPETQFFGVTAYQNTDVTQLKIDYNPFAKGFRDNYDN
Assay: PBM E-score of 8-mer (E-score (dimensionless, -0.5 to 0.5)); Tbr is Tbrain of the sea star Patiria miniata (Pm) or the sea urchin Strongylocentrotus purpuratus (Sp); higher = stronger binding preference; most listed sequences are background and not binding sites
Settings: the construct has about 5 more residues each side
Summary of the method: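 Primer extension turned Universal Agilent oligonucleotide arrays double-stranded. They were incubated with 200 nM protein in PBS (pH 7.5); the protein was a GST-fused Tbr T-box DNA-binding domain expressed in BL21 E. coli at 20 °C and purified on glutathione. Every ungapped 8-mer was scored from the scanned, quantified probe intensities, and the Universal PBM Analysis Suite gave each an enrichment E-score averaged over duplicate arrays.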

| Sequence | PBM E-score of 8-mer |
| --- | --- |
| GTTTAATA | -0.165 ± 0.047 |
| AAGCCGAA | -0.284 ± 0.0089 |
| ACTGACTA | -0.0734 ± 0.06 |
| ACCTCTAT | 0.155 ± 0.075 |
| CCGTACCC | -0.248 ± 0.056 |
| CGCCGCCA | 0.192 ± 0.042 |
| AAAACCTA | -0.188 ± 0.12 |
| AAGTAAAA | -0.274 ± 0.042 |
| AATCCAAG | -0.166 ± 0.021 |
| TCCGGACA | -0.126 ± 0.028 |
| TACCTATA | -0.192 ± 0.0052 |
| GCTCGTAA | -0.123 ± 0.1 |
| GCCACTAA | 0.216 ± 0.011 |
| ACTCGGCA | -0.0163 ± 0.00063 |
| GCACACAA | 0.06665 ± 0.00032 |
| AAGTGTCA | 0.46288 ± 2.8e-05 |
| CAAATGTG | 0.265 ± 0.052 |
| AGGGAGAT | 0.0592 ± 0.029 |
| AAGTGAAC | -0.0796 ± 0.11 |
| GTGCTCCA | -0.101 ± 0.1 |
| ACAAAAGC | -0.097 ± 0.13 |
| ATGATACC | -0.165 ± 0.025 |

| Sequence | PBM E-score of 8-mer |
| --- | --- |
| AACGCTGC | 0.105 ± 0.045 |
| CGTAAGCC | -0.177 ± 0.033 |
| GTAGGTGA | 0.379 ± 0.023 |
| TCAGATGA | -0.155 ± 0.012 |
| AGTAATAG | -0.0501 ± 0.058 |
| CGATGGCC | -0.0924 ± 0.0053 |
| CTCGACTA | -0.133 ± 0.0041 |
| AGGGGCCA | -0.101 ± 0.029 |
| CAGGGCAC | -0.0884 ± 0.051 |
| GCAGTACC | 0.0866 ± 0.049 |
| ATCTGTAG | -0.206 ± 0.018 |
| TACACGGA | 0.123 ± 0.019 |
| GCCACAGC | 0.00288 ± 0.017 |
| AACTCAAA | -0.0558 ± 0.087 |
| AAGCGACG | 0.151 ± 0.018 |
| TATCTAAA | -0.254 ± 0.016 |
| AAAAAGCC | -0.163 ± 0.035 |
| AGATTGTA | 0.0312 ± 0.06 |
| GGTTTCGA | -0.126 ± 0.067 |
| ATGGGGAG | -0.243 ± 0.051 |
| CCGGTAAG | -0.243 ± 0.052 |
| GCGCTCTA | 0.0862 ± 0.029 |

| Sequence | PBM E-score of 8-mer |
| --- | --- |
| TAACGCGA | 0.314 ± 0.02 |
| GATCGCGA | 0.338 ± 0.0064 |
| CTGTACAA | -0.0804 ± 0.027 |
| TACGGAGA | -0.122 ± 0.047 |
| TGACGAAA | 0.138 ± 0.003 |
| CGCCATAC | 0.03843 ± 0.00028 |
| CCGAAGTA | -0.204 ± 0.11 |
| AGTTTTAT | -0.224 ± 0.059 |
| TAGAAGAA | -0.345 ± 0.019 |
| AATCAACT | -0.0329 ± 0.046 |
| CAAATAAC | -0.00177 ± 0.023 |
| AACCATTC | -0.0667 ± 0.039 |
| CAATGCCA | -0.0874 ± 0.0037 |
| CGTTCTTA | -0.122 ± 0.014 |
| ACATCGCC | 0.0883 ± 0.049 |
| TGGCATAA | -0.0047 ± 0.0079 |
| CGACATAG | -0.00643 ± 0.053 |
| TCCTGCAA | -0.0918 ± 0.019 |
| CGTACGCA | -0.0455 ± 0.046 |
| GGGGCGAC | 0.0921 ± 0.09 |
| TGACTGCA | 0.0892 ± 0.055 |
| CTGGAGAC | -0.0939 ± 0.021 |

| Sequence | PBM E-score of 8-mer |
| --- | --- |
| AAAGGACG | -0.22 ± 0.047 |
| AAAAATTG | -0.0805 ± 0.083 |
| TGCATCAA | -0.0456 ± 0.044 |
| ATATAAAG | -0.191 ± 0.09 |
| GGCGCATA | -0.175 ± 0.028 |
| CAAGACCG | -0.109 ± 0.032 |
| ACTGCCTC | -0.214 ± 0.05 |
| CATGAGAC | -0.201 ± 0.071 |
| CTCTGAAG | -0.247 ± 0.045 |
| ATCATCCA | -0.0921 ± 0.058 |
| TGGCCTAA | -0.198 ± 0.016 |
| AACCGTCT | 0.0342 ± 0.089 |
| CACATCGC | 0.333 ± 0.027 |
| AAAACGTC | -0.038 ± 0.097 |
| AAAGCCAC | -0.166 ± 0.034 |
| AGGCCCGC | -0.15 ± 0.036 |
| GTCAAAAC | -0.004 ± 0.043 |
| GATAGTAA | -0.0634 ± 0.015 |
| TATGTACA | -0.174 ± 0.083 |
| CCCACTAG | -0.0652 ± 0.1 |
